In all, about 33,000 sequences were measured (“E-score (-0.5 to 0.5)”: median about -0.035, highest 2% from about 0.34 on). The list shows a part of the results.
Molecular target: T1, Mot3 (UniProt P54785)
T1 sequence: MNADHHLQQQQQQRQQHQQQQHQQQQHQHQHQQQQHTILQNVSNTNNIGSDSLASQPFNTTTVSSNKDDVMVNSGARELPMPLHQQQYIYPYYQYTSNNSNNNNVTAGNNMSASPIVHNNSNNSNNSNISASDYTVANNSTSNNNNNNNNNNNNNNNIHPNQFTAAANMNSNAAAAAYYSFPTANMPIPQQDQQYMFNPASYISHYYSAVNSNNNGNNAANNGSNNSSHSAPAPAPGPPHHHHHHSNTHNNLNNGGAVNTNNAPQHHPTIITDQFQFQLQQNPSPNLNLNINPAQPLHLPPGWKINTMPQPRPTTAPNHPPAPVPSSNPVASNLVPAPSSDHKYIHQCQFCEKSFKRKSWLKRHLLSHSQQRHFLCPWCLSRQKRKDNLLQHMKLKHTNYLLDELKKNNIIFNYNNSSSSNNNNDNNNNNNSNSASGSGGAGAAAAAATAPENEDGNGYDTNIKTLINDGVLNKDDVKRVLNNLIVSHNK
Assay: PBM E-score (8-mer binding enrichment) (E-score (-0.5 to 0.5)); higher = stronger / more preferred TF binding; most listed sequences are background and not binding sites
Settings: protein concentration: 200 nM; construct: GST-full length
Method in brief: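 GST-tagged yeast TFs (full-length or DNA-binding domain) were made by PURExpress in vitro transcription/translation and applied at about 100-200 nM to universal all-10-mer Agilent arrays. The arrays were made double-stranded by primer extension, on fresh or once-stripped slides. Bound protein was detected with fluorescent anti-GST, and scans were normalised with masliner. Each ungapped eight-base word, pooled with its reverse complement, received an E-score (modified Wilcoxon-Mann-Whitney statistic) from the Universal PBM Analysis Suite.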

Sequence | PBM E-score
CCAAATAG | 0.00768
GAGGTATC | -0.119
ATACTGAC | -0.00434
TCGAACGA | -0.132
CTGAAAAC | -0.00504
CATAAATA | 0.0659
CGGTGTAC | 0.0428
CCACTAGA | -0.138
CGCCCCAC | -0.243
AGCTTGCC | 0.318
AGGACTCC | -0.257
AACGAGCC | 0.0554
GCGATGGA | -0.19
AGTATATA | 0.117
CTTGCCTC | 0.425
ATGCCCTA | -0.304
CCTCTTCG | -0.175
ACGTGGAG | -0.00647
AGACTGTC | -0.129
CCGGCTAC | -0.218
CCCACGAG | -0.293
GAGGTCTA | -0.267
ACCGTGTG | 0.175
ACTGTCAG | -0.032
CGCAATCC | -0.0355

Sequence | PBM E-score
AATTACTC | 0.295
GTTAGGCA | 0.454
ACCCCTCT | -0.0858
CGGCTTTC | -0.107
AGCTAGAG | -0.0566
ACTCCTTC | -0.0369
GATAAACC | -0.0874
GGGGTTGA | -0.192
CTAGAGAC | -0.235
GACCTCTC | -0.234
CTCGGAAG | -0.171
AACTACCG | -0.0555
AAAGGGTG | 0.0112
CCTACCGA | -0.04
ACGGATTG | -0.19
GATGCTGC | -0.131
ACATGTGC | 0.314
CGGGTCGA | -0.253
CGTTGGCA | 0.00506
AACATCGT | 0.077
CCCCATGC | -0.0474
AAGAACGT | 0.165
TTCGTCAA | 0.048
CAATTCAG | -0.0267
GTCTAAAC | 0.058

Sequence | PBM E-score
CTACTATC | 0.0896
ATCAGTAC | -0.0527
CAGACCCG | -0.0882
ACGGGCAA | 0.0915
AACCAATG | 0.0897
GCGTATGA | -0.0512
AATTATAG | -0.0152
AAGCCAAC | -0.0405
CAGCGTGC | 0.00716
TGCCTCCA | 0.404
ATTTTCAC | 0.0895
CCAGTCCC | -0.325
ATCAACAT | 0.339
AGGTAAGA | 0.144
CTAGCGAG | -0.233
AGGATAAG | -0.191
CGAATATC | -0.0868
CACCTGAG | 0.0319
GCGGCTAA | -0.14
TGGGTGAA | 0.114
GACCAGGA | -0.0221
ACAGGAAT | 0.107
ATTCAATA | 0.0942
CGATCGAC | -0.00926
TAGCATGA | 0.13

Sequence | PBM E-score
TTCATCAA | 0.102
TATTCTAA | 0.0881
GAACACCA | -0.0537
ATTAACAA | 0.328
AGAGCCCG | -0.342
ACTCATCA | -0.0406
ACCGTTAT | -0.0919
AGGCACCA | 0.492
AATCGATA | 0.0988
CCTCCAAG | 0.0657
CCTTCCGC | -0.133
ACGCCTAC | 0.0133
AATAGTTA | 0.0491
GAATGACC | -0.244
AGCACTTC | -0.0493
GAGCAATA | -0.0444
AAGTGGGG | -0.154
CATTAGTA | 0.102
ACCCATCC | -0.237
TCATCAAA | -0.00291
CACATCTC | 0.0801
TCGTTAAA | 0.104
TCGATAGA | -0.0212
AAGTGGAG | 0.128
ATGAGATC | -0.0244

Sequence | PBM E-score
CAAATTAA | 0.106
CAAAACGA | 0.162
ATCCGTTC | -0.0618
AATACAAT | 0.148
AACGGTGA | -0.107
CACGACGA | 0.0462
ACACATGC | 0.207
GTCTCGTA | -0.0598
GAGGATCC | -0.146
CATTCTGC | -0.0816
CTCAAGCA | -0.101
AATCATGC | 0.0214
ATCACCTA | -0.116
TAAACAGA | 0.177
CTCCCGAA | -0.263
ATCCACTA | -0.0198
CACAGTGC | 0.0432
CTTCACGC | 0.151
CCTTTCCG | 0.00318
AACTCAGA | 0.143
AAAATGCA | -0.0614
GGAAACCC | 0.0425
GCGTTAAA | 0.239
AAACCAAT | -0.0172
GCATATCA | -0.0598

Sequence | PBM E-score
GCCTTTCC | 0.192
CAGCTAAA | 0.105
CAACATGA | 0.352
AGCAGTAT | -0.254
AACGTATT | 0.223
GGGGAGAC | -0.257
AATTACAG | 0.27
CCTATCCC | -0.129
ATGTGCCA | 0.0201
ATCCTGAG | -0.153
CCACTGGA | -0.232
CTTAAAGC | 0.00562
CCATGGCG | -0.134
CCGATTGA | -0.011
AACGTGAT | 0.0924
CCAAAATC | -0.0299
AAATTTTA | 0.195
GCGCCACA | -0.0964
AGACGCCC | -0.331
CCCGCGAG | -0.205
AAAATCAC | 0.145
CGAACCAA | -0.121
AAAGTTCG | 0.111
GGACTTAA | -0.0725
GTAGAAAC | 0.218

Sequence | PBM E-score
ATTTGCTA | -0.0903
AAAATTTT | 0.0875
AACCGTAG | -0.229
AAGGTGAA | -0.0354
AGTCAAGA | -0.176
ACCCAGTC | -0.272
CGAAGCAA | 0.0941
CGCTCAAG | -0.0197
TCCCAACA | -0.0506
CCTCAACA | 0.275
AGTCCTAT | -0.0536
CAGTTCCA | -0.00514
CACACTGC | -0.218
AAGTGGCT | -0.213
CGTCCCTC | -0.103
CCGTTTCC | 0.041
GGGATGGA | -0.118
TAACGTGA | 0.141
CCGAAAGC | -0.0343
CATGTTCG | 0.158
GCAGACTA | -0.142
CTTACCTC | -0.0814
ACGCTGCG | -0.0155
ATCCCAGC | -0.159
CGAAAAAA | 0.187

Sequence | PBM E-score
GATGTTAC | 0.276
AGCCACTC | -0.171
GGCATAGA | -0.14
CGCTGCAG | -0.0424
TCAGAGGA | -0.251
AAGTAGTC | 0.118
CAAGGCCG | -0.0783
CAAAGGAG | -0.0795
CATGACGA | -0.0662
TCATGAGA | 0.0252
GCGCCGTA | -0.0443
CACTGATG | -0.0925
ATAAAGAG | 0.0636
AAACGTGT | 0.344
GACGGCCA | -0.165
ACTTTGAG | 0.0207
AGTAAATG | 0.207
AACGATCC | -0.212
CAAGCCGC | -0.00773
ATTGCATG | -0.0116
GCTTTGTA | 0.216
CCCTGCCC | -0.284
CAGTCCTC | -0.298
ATCCCGTC | 0.011
AATGGTCG | -0.0766

Sequence | PBM E-score
AAGGGGGT | -0.18
ACGGTACA | -0.0548
GGGAGCAC | -0.45
TACCAGCA | -0.158
ATCATTCG | -0.175
CACCATAA | -0.0272
AGATGGCG | -0.0823
GTATTTTA | 0.23
AGGTGTGG | -0.301
ACCTGTGA | 0.23
GTCTAGGA | -0.024
CAAGCCCG | -0.178
ATAAGTCA | 0.0444
ACTTATAA | 0.136
TCTGAGAA | -0.0446
GAAGTTAC | 0.0404
CCAATACA | 0.163
GATTGTAC | -0.0144
ATCGCGAG | 0.0717
